Some of the results follow. The list includes weakly bound sequences.

The target of this assay is T1, MBP-FoxP3dN (UniProt Q99JB6).
T1 sequence: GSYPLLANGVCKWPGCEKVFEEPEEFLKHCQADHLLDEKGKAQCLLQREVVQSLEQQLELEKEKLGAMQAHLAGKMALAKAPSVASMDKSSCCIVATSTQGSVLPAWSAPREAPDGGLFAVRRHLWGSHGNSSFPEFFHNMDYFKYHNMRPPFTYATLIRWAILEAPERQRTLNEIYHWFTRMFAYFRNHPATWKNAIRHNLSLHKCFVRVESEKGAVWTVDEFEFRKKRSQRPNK
The assay is described as follows: PD-seq (MBP pull-down with sequencing). The following applies: 20 mM Tris-HCl pH 7.5, 100 mM NaCl, 1.5 mM MgCl2, 0.4 uM protein, 0.1 uM dsDNA library, 30 min, room temperature, amylose pull-down; high values mean tight binding; double strand, one strand shown.
On to “GATGATTGTTCTCCCAGCTGATGAATTGAACGCCTCGAGTAAACAAATTTTCCTAATCTTTCTGTTCAAGCGCCATCTAC”, for which the binding signal (RPM ratio (pull-down/input)) was determined as 0.571. On to “GATGATTGTTCTCCCAGCTGATGAATTGCTGGGATCGAGTAAACAAATTTTCCTAATCTTTCTGTTCAAGCGCCATCTAC”, for which the binding signal (RPM ratio (pull-down/input)) turned out to be 0.448. In the case of “GATGATTGTTCTCCCAGCTGATGAATTGACGACGTCGAGTAAACAAATTTTCCTAATCTTTCTGTTCAAGCGCCATCTAC”, the binding signal (RPM ratio (pull-down/input)) is 0.348.

For “GATGATTGTTCTCCCAGCTGATGAATTTCTTAGGTCGAGTAAACAAATTTTCCTAATCTTTCTGTTCAAGCGCCATCTAC”, the binding signal (RPM ratio (pull-down/input)) was determined as 0.273.

Turning to “GATGATTGTTCTCCCAGCTGATGAATTCTAGTGTTCGAGTAAACAAATTTTCCTAATCTTTCTGTTCAAGCGCCATCTAC”, the binding signal (RPM ratio (pull-down/input)) was 0.908.

For the sequence “GATGATTGTTCTCCCAGCTGATGAATTAAGGTTTTCGAGTAAACAAATTTTCCTAATCTTTCTGTTCAAGCGCCATCTAC”, the binding signal (RPM ratio (pull-down/input)) came out at 0.677. The same measure for “GATGATTGTTCTCCCAGCTGATGAATTCTTTCGATCGAGTAAACAAATTTTCCTAATCTTTCTGTTCAAGCGCCATCTAC”: 0.223; for “GATGATTGTTCTCCCAGCTGATGAATTATTCTGTTCGAGTAAACAAATTTTCCTAATCTTTCTGTTCAAGCGCCATCTAC”: 0.379. For “GATGATTGTTCTCCCAGCTGATGAATTCACTTGTTCGAGTAAACAAATTTTCCTAATCTTTCTGTTCAAGCGCCATCTAC” the value was 1.02.

For the sequence “GATGATTGTTCTCCCAGCTGATGAATTATCCCCATCGAGTAAACAAATTTTCCTAATCTTTCTGTTCAAGCGCCATCTAC”, the binding signal (RPM ratio (pull-down/input)) is 0.287. For “GATGATTGTTCTCCCAGCTGATGAATTATAATAATCGAGTAAACAAATTTTCCTAATCTTTCTGTTCAAGCGCCATCTAC” the value was 0.511. The same measure for “GATGATTGTTCTCCCAGCTGATGAATTCGATCGTTCGAGTAAACAAATTTTCCTAATCTTTCTGTTCAAGCGCCATCTAC”: 0.488; for “GATGATTGTTCTCCCAGCTGATGAATTTCAGGGCTCGAGTAAACAAATTTTCCTAATCTTTCTGTTCAAGCGCCATCTAC”: 0.225. Regarding “GATGATTGTTCTCCCAGCTGATGAATTCGGTAAATCGAGTAAACAAATTTTCCTAATCTTTCTGTTCAAGCGCCATCTAC”, the binding signal (RPM ratio (pull-down/input)) was 0.35. The same measure for “GATGATTGTTCTCCCAGCTGATGAATTGAGATCATCGAGTAAACAAATTTTCCTAATCTTTCTGTTCAAGCGCCATCTAC”: 0.372; for “GATGATTGTTCTCCCAGCTGATGAATTTGATGCCTCGAGTAAACAAATTTTCCTAATCTTTCTGTTCAAGCGCCATCTAC”: 4.09. For “GATGATTGTTCTCCCAGCTGATGAATTTATCTTGTCGAGTAAACAAATTTTCCTAATCTTTCTGTTCAAGCGCCATCTAC” the value was 0.727; for “GATGATTGTTCTCCCAGCTGATGAATTTCACTGATCGAGTAAACAAATTTTCCTAATCTTTCTGTTCAAGCGCCATCTAC”, 0.284. On to “GATGATTGTTCTCCCAGCTGATGAATTGATGGGGTCGAGTAAACAAATTTTCCTAATCTTTCTGTTCAAGCGCCATCTAC”, for which the binding signal (RPM ratio (pull-down/input)) was 0.404. For “GATGATTGTTCTCCCAGCTGATGAATTTGTTAGATCGAGTAAACAAATTTTCCTAATCTTTCTGTTCAAGCGCCATCTAC” the value was 2.02.

Consider “GATGATTGTTCTCCCAGCTGATGAATTGATCGTATCGAGTAAACAAATTTTCCTAATCTTTCTGTTCAAGCGCCATCTAC”, for which the binding signal (RPM ratio (pull-down/input)) came out at 0.676. With “GATGATTGTTCTCCCAGCTGATGAATTCTTGTCTTCGAGTAAACAAATTTTCCTAATCTTTCTGTTCAAGCGCCATCTAC”, the binding signal (RPM ratio (pull-down/input)) was found to be 0.367. As to “GATGATTGTTCTCCCAGCTGATGAATTCGAATATTCGAGTAAACAAATTTTCCTAATCTTTCTGTTCAAGCGCCATCTAC”, the binding signal (RPM ratio (pull-down/input)) turned out to be 0.521. As for “GATGATTGTTCTCCCAGCTGATGAATTTCCGATTTCGAGTAAACAAATTTTCCTAATCTTTCTGTTCAAGCGCCATCTAC”, the binding signal (RPM ratio (pull-down/input)) was found to be 0.333.

Regarding “GATGATTGTTCTCCCAGCTGATGAATTGTGAGTTTCGAGTAAACAAATTTTCCTAATCTTTCTGTTCAAGCGCCATCTAC”, the binding signal (RPM ratio (pull-down/input)) amounted to 2.91. For the sequence “GATGATTGTTCTCCCAGCTGATGAATTCTCCGGATCGAGTAAACAAATTTTCCTAATCTTTCTGTTCAAGCGCCATCTAC”, the binding signal (RPM ratio (pull-down/input)) came out at 0.137. For “GATGATTGTTCTCCCAGCTGATGAATTTCCTTTCTCGAGTAAACAAATTTTCCTAATCTTTCTGTTCAAGCGCCATCTAC” the value was 0.328; for “GATGATTGTTCTCCCAGCTGATGAATTATCCAGGTCGAGTAAACAAATTTTCCTAATCTTTCTGTTCAAGCGCCATCTAC”, 0.164; for “GATGATTGTTCTCCCAGCTGATGAATTCTCTCGATCGAGTAAACAAATTTTCCTAATCTTTCTGTTCAAGCGCCATCTAC”, 0.223. “GATGATTGTTCTCCCAGCTGATGAATTCATATCTTCGAGTAAACAAATTTTCCTAATCTTTCTGTTCAAGCGCCATCTAC”: the binding signal (RPM ratio (pull-down/input)) came to 0.762.

As to “GATGATTGTTCTCCCAGCTGATGAATTGGCAGAGTCGAGTAAACAAATTTTCCTAATCTTTCTGTTCAAGCGCCATCTAC”, the binding signal (RPM ratio (pull-down/input)) amounted to 0.212.

On to “GATGATTGTTCTCCCAGCTGATGAATTTTTCCCATCGAGTAAACAAATTTTCCTAATCTTTCTGTTCAAGCGCCATCTAC”, for which the binding signal (RPM ratio (pull-down/input)) was found to be 0.246.
